Screen size: about 43,000 compounds; about 200 (0.47%) were called active. Roughly 12% stayed inconclusive and do not appear here. The call rests on the fitted dose curve; in most records, active means well fitted cell-killing curve with a large enough effect; inconclusive means small, poorly fitted or top-dose-only effect, or effect the other way; inactive means flat fitted curve, though single readings scatter. The list shows a part of the results.
Assay: Cell viability qHTS assay in S16 Pmp22-F2sN cells; further: nearly all actives have a fitted effect of over 65% in size
Details: S16 Pmp22-F2sN Schwann cells (luciferase reporters placed in the Pmp22 gene) viability, CellTiter-Glo, 24 h; series mostly up to 57.5 µM; activity change, negative = cytotoxicity: at the top concentration
Method in brief: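 Seed 500-1,000 S16 Pmp22-F2sN cells per well in phenol-red-free DMEM with 10% heat-inactivated FBS; pin-add 23 nL compound; incubate 24 h at 37C; add CellTiter-Glo, wait 15 min protected from light; read luminescence.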
On the % scale 0 is the no-effect control and ±100 the full control effect.

Row | SMILES | activity change, negative = cytotoxicity
1 | c1ccc2c(c1)ncc1nncn12 | inactive: 2.03%
2 | CCc1nnc(SCC(=O)Nc2cccc(C(F)(F)F)c2)c2cc3oc(C)cc3n12 | inactive: -2.77%
3 | CCCc1nn2cc(-c3ccc(C)c(C)c3)nc2s1 | inactive: -0.296%
4 | CCOC(=O)Cc1c(C)nc2c(-c3ccc(Cl)cc3)c(C(F)(F)F)nn2c1C | inactive: 5.7%
5 | COc1ccc(-c2noc(CSc3nnc(Cc4ccccc4)n3-c3cccc(C)c3)n2)cc1 | inactive: -23.4%
6 | O=C(COc1ccccc1)Nc1nnc(SCc2cc(=O)n3cc(Cl)ccc3n2)s1 | inactive: -3.62%
7 | COc1ccc(CCNC(=O)CCS(=O)(=O)c2cc3c(cc2Cl)NC(=O)CO3)cc1OC | inactive: 13.6%
8 | Cc1cc(C)cc(NC(=O)c2cc(S(=O)(=O)N3CCCC3)ccc2F)c1 | inactive: -14.6%
9 | Cc1cccc(CSc2nnc(CCCCCN)o2)c1 | inactive: 1.64%
10 | Cc1ccc(C)c(NC(=O)c2nnn(Cc3ccc(F)cc3Cl)c2N)c1 | inactive: -15.5%
11 | CCc1c(C)sc2c1CCN(C(=O)Nc1cc(C)ccc1C)C2c1ccc(OC)cc1 (configuration not stated) | inactive: -23.8%
12 | COc1ccc(OC)c(CCNC(=O)Cn2nc(C)n3c(cc4sccc43)c2=O)c1 | inactive: 3.92%
13 | COc1ccc(-n2ncc(C(=O)NCCN3CCOCC3)c2C2CCN(C(=O)OC(C)(C)C)CC2)cc1 | inactive: 4.1%
14 | COc1ccc(CCNS(=O)(=O)c2ccc(N3CCCCS3(=O)=O)cc2)cc1 | inactive: -8.85%
15 | CCC1Oc2ccccc2N(CC(=O)NCCc2ccc(OC)c(OC)c2)C1=O (configuration not stated) | inactive: 2.64%
16 | COc1cc(OC)c(NC(=O)N2CCc3cc(S(=O)(=O)N4CCC(C)CC4)ccc32)cc1Cl | inactive: 12.3%
17 | O=c1oc2ccc3ccccc3c2cc1-c1nnc(Nc2cccc(C(F)(F)F)c2)s1 | inactive: 1.45%
18 | COc1ccc(NC(=O)Cn2c(=O)n(Cc3ccco3)c(=O)c3oc4ccccc4c32)cc1Cl | inactive: -4.77%
19 | Cc1nnc(N2CCC(C(=O)NC(C)C)CC2)c2nn(-c3ccccc3)c(C)c12 | inactive: -16.2%
20 | Clc1ccccc1CN1CCc2nc(N3CCN(c4ncccn4)CC3)ncc2C1 | inactive: 18.1%
21 | Cc1ccc(-c2noc(-c3nnn(-c4ccc(Br)cc4F)c3C)n2)cc1 | inactive: -17.7%
22 | O=C(Nc1ccc(F)cc1)c1cc2cc3ccc(Cl)cc3nc2o1 | inactive: 6.69%
23 | COc1ccc(-n2ncc3c2ncn2nc(Cc4ccccc4)nc32)cc1 | inactive: 2.02%
24 | Cc1ccccc1CNCc1c(C(=O)O)c(C)n(Cc2ccc(F)cc2Cl)c1C | inactive: 0.0016%
25 | O=C(Nc1cccc(C(F)(F)F)c1)C1CCN(S(=O)(=O)c2cccs2)CC1 | inactive: -17.4%

Row | SMILES | activity change, negative = cytotoxicity
26 | C=C(C)Cn1c(SCC(=O)c2ccccc2)nc2sc3c(c2c1=O)CCCC3 | inactive: 23.8%
27 | CC(=O)Nc1c(C)nn(-c2ccccc2)c1N1CCC(C(=O)NCc2ccc(F)cc2)CC1 | inactive: 3.25%
28 | CC(=O)c1ccc(NC(=O)CSc2nnc(N)s2)cc1 | inactive: -16.8%
29 | CCn1cc2nc(SCc3cccc(C(F)(F)F)c3)n(Cc3ccc(OC)cc3)c(=O)c2n1 | inactive: -27.6%
30 | O=c1c2oc3ccccc3c2n(Cc2ccc(Cl)cc2)c(=O)n1Cc1ccccc1 | inactive: 2.88%
31 | CCC1CCCCN1C(=O)CCS(=O)(=O)c1cc2c(cc1C)NC(=O)CO2 (configuration not stated) | inactive: 9.97%
32 | Cc1ccc(Nc2c(-c3ccc(C)o3)nc3cccc(C)n23)cc1 | inactive: -8.7%
33 | O=C(CNC(=O)c1ccccc1)OCc1cc(=O)n2nc(C3CC3)sc2n1 | inactive: -4.61%
34 | COc1ccc(-c2cc(=O)oc3c4c(ccc23)OCN(Cc2ccccc2)C4)cc1 | inactive: 6.85%
35 | Cc1ccc(NC(=O)c2oc3ccccc3c2NC(=O)C23CC4CC(CC(C4)C2)C3)cc1 | inactive: 11.2%
36 | CCOc1ccc(Nc2ncnc3scc(-c4ccc(OC)cc4)c23)cc1 | inactive: -1.49%
37 | Cc1ccc(C(=O)NCc2ccccc2)cc1NC(=O)c1nsc2ccccc12 | inactive: -25.5%
38 | Cn1cc(C(=O)NCCc2ccccc2)c(=O)c2cc(S(=O)(=O)N3CCCCC3)ccc21 | inactive: -1.64%
39 | CC(C)(C)OC(=O)N1CCC(c2c(C(=O)N3CCN(Cc4ccccc4)CC3)cnn2-c2ccc(Cl)cc2)CC1 | inactive: -26.7%
40 | CCc1ccc(N2C(=O)CN(S(=O)(=O)CC)CC2(C)C(=O)NC2CCCCC2)cc1 (configuration not stated) | inactive: 13.3%
41 | CCOC(=O)c1c(C)[nH]c(C)c1S(=O)(=O)N1CCC(C(=O)Nc2ccc(C)c(N(C)C)c2)CC1 | inactive: -22.4%
42 | Cc1ccc2oc(=O)n(Cc3ccccc3Cl)c2c1 | inactive: 3.58%
43 | CCc1ccc(OCC(=O)Nc2cc(-c3nc4cc(C)ccc4o3)ccc2C)cc1 | inactive: 16.8%
44 | CCCNC(=O)C1CCC(CNS(=O)(=O)c2ccc3c(c2)CC(C)N3C(C)=O)CC1 (configuration not stated) | inactive: -4.21%
45 | CN(Cc1ccc(F)cc1)S(=O)(=O)c1nnc(NC(=O)c2ccccc2)s1 | inactive: -3.33%
46 | CCOc1c(Cl)cc(C(=O)N(Cc2ccc(N(C)C)cc2)Cc2ccco2)cc1Cl | inactive: -0.611%
47 | CCc1cccc(C)c1Nc1c(-c2ccsc2)nc2ncccn12 | inactive: 5.54%
48 | Cc1ccc2c(c1)c1c3n2CCN(C(=O)c2cccc(C(F)(F)F)c2)C3CCC1 (configuration not stated) | inactive: 9.44%
49 | Cc1ccc(C)c(Cn2c3ccccc3c3cnn(CC(=O)NCCc4ccccc4)c(=O)c32)c1 | inactive: 8.18%
50 | COc1ccc(N2CCN(Cc3nnc(-c4ccc5c(c4)OCO5)o3)CC2)cc1 | inactive: -3.03%

Row | SMILES | activity change, negative = cytotoxicity
51 | Clc1ccc(-c2noc(-c3cccnc3NCc3ccco3)n2)cc1 | inactive: 8.47%
52 | Cc1cccc(CNC(=O)CCCN2C(=O)CCn3nc(-c4cccn4C)cc32)c1 | inactive: 19.7%
53 | Cc1ccc(-n2nc(C)c3nc(CCC(=O)Nc4cccc(F)c4)c(=O)n(C)c32)cc1 | inactive: 2.23%
54 | Cc1ccc2c(=O)cc(C(=O)Nc3sc4c(c3C(=O)NCC3CCCO3)CCCC4)oc2c1 (configuration not stated) | inactive: 6%
55 | COc1ccc(C2CC(=O)c3cc(-c4nc(-c5cccc(Cl)c5)cs4)c(=O)[nH]c3C2)cc1 (configuration not stated) | inactive: 0.372%
56 | CSc1oc(-c2cccs2)nc1S(=O)(=O)c1ccc(Br)cc1 | inactive: -0.0965%
57 | O=S(=O)(c1ccc(Cl)cc1Cl)n1ccnc1 | inactive: -2.67%
58 | CCOc1ccccc1N(C)C(=O)c1c2c(nc3ccccc13)C(=O)N(C1CCCCC1)C2 | inactive: -25.8%
59 | CCC(Sc1nc2ncccc2o1)C(=O)Nc1ccc(OC)c(OC)c1 (configuration not stated) | inactive: 7.04%
60 | CCOc1ccc(Nc2nn(-c3ccc(OC(F)(F)F)cc3)nc2C(C)=O)cc1 | inactive: -3.83%
61 | COc1cccc(Cn2c(-c3nonc3NC(C)=O)nc3ccccc32)c1 | inactive: -14.1%
62 | CC(C)CCn1c(=O)c2cccnc2n(CC(=O)Nc2ccccc2F)c1=O | inactive: -1.23%
63 | Cn1c2ccccc2c2cnn(CC(=O)Nc3ccccc3F)c(=O)c21 | inactive: -4.5%
64 | Cc1cc(C)cc(NC(=O)c2c(C)oc3nc(C)nc(N4CCCC4)c23)c1 | inactive: 18.4%
65 | CNC(=O)c1ccc2c(c1)N(Cc1ccccc1Cl)C(=O)c1ccccc1S2 | inactive: 7.15%
66 | O=C(COc1ccc(F)cc1)NCc1ccc2c(c1)CCN2C(=O)c1ccccc1 | inactive: 2.62%
67 | Cc1cccc(NC(=O)c2sc3nc(-c4cc5ccc(O)cc5oc4=O)[nH]c(=O)c3c2C)c1 | inactive: -7.93%
68 | O=C(Cn1c(=O)nc(-c2ccccc2F)c2cc(Cl)ccc21)NCCCc1ccccc1 | inactive: -14.5%
69 | COc1ccccc1CNC(=O)CCNS(=O)(=O)c1ccc2c(c1)oc(=O)n2C | inactive: -3.35%
70 | COCCCN1C(=O)c2oc3ccccc3c(=O)c2C12C(=O)N(C)c1ccccc12 (configuration not stated) | inactive: -15.9%
71 | COc1ccc(CC(=O)N2CCc3cc(OC)c(OC)cc3C2COc2ccc3c(C)cc(=O)oc3c2)cc1OC (configuration not stated) | inactive: 1.48%
72 | O=C(COc1ccccc1F)Nc1ccc(OCc2cc(=O)n3ccccc3n2)cc1 | inactive: -11.4%
73 | COC(=O)c1ccc(Cn2c(SCc3ccc(F)cc3)nc3ccncc32)cc1 | inactive: 1.87%
74 | O=c1ccc2cc(S(=O)(=O)Nc3ccc(OC(F)(F)F)cc3)ccc2[nH]1 | inactive: -2.81%
75 | Cc1ccc(CNC(=O)CSC2=Nc3ccccc3N=C(c3ccc(F)cc3)C2)cc1 | inactive: 22.9%

Row | SMILES | activity change, negative = cytotoxicity
76 | CCOc1ccc(NC(=O)CCc2c(C)nc3c(-c4ccccc4)c(C)nn3c2C)cc1 | inactive: 9.44%
77 | Cc1ccccc1C(=O)N1CCC(C(=O)Nc2ccc(F)cc2F)CC1 | inactive: -0.2%
78 | COc1ccc(CNC(=O)c2ccc(NC(=O)N3CCSc4ncccc43)cc2)cc1 | inactive: 0.702%
79 | CCCNC(=O)CN1CCN(c2ccc(NC(=O)c3ccc(OC)cc3)cc2C(=O)O)CC1 | inactive: 6.34%
80 | CCOC(=O)c1cccc(NC(=O)NC(C)c2c(-n3cccc3)sc3c2CCN(C)C3)c1 (configuration not stated) | inactive: 3.65%
81 | Cc1ccc(S(=O)(=O)c2nc(-c3ccccc3F)oc2NCc2ccccc2)cc1 | inactive: 3.44%
82 | Cc1nc(N2CCOCC2)c2c(C(=O)N3CCN(c4ccccc4)CC3)c(C)oc2n1 | inactive: 4.85%
83 | COc1ccccc1NC(=O)C1=C(C)Nc2nc(-c3ccco3)nn2C1c1ccccc1F (configuration not stated) | inactive: -3.03%
84 | Cn1nnnc1SCCNCc1ccc(Cl)c(Cl)c1 | inactive: 6.98%
85 | CCCc1cc(=O)[nH]c(Nc2ccc(OCC)cc2)n1 | inactive: 4.29%
86 | CCOc1ccc(C(=O)Nc2ccc(-n3nncc3-c3ccc(OC)cc3)cc2)cc1 | inactive: -13.6%
87 | COc1cccc(CCNC(=O)c2cnc3sc(N4CCOCC4)nn3c2=O)c1 | inactive: 1.54%
88 | Cc1cccc(S(=O)(=O)c2cn(C)c3cc(N4CCN(c5ccccc5)CC4)c(F)cc3c2=O)c1 | inactive: -5.62%
89 | Cc1ccc(Cn2c(C)c3cnn(CC(=O)NCCc4ccc(Cl)cc4)c(=O)c3c2C)cc1 | inactive: 4.39%
90 | COc1cc(NC(=O)N2CCC(CN3CCCCCC3)CC2)cc(OC)c1OC | inactive: 5.71%
91 | CCc1ccc(NC(=O)Cn2cc(S(=O)(=O)c3ccc(F)cc3)c(=O)c3cc(OC)ccc32)cc1 | inactive: -8.06%
92 | CC(=O)c1ccc(NC(=O)CCc2c(C)nn(-c3ccc4nnc(C)n4n3)c2C)cc1 | inactive: 9.48%
93 | COc1ccc(NC(=O)C2CCC(CNS(=O)(=O)c3ccc(Br)s3)CC2)c(OC)c1 (configuration not stated) | inactive: -2.34%
94 | CC(C)CC(C(=O)NCC1CCN(Cc2ccc(F)cc2)CC1)N1Cc2ccccc2C1=O (configuration not stated) | inactive: -9.42%
95 | COC(=O)C1=C(C)N(C(C)C)C(=O)C1(NC(=O)c1ccc(C(C)(C)C)cc1)C(F)(F)F (configuration not stated) | inactive: -1.01%
96 | Cc1ccccc1Cn1c(=O)n(CCC(=O)NCc2ccco2)c(=O)c2sccc21 | inactive: -3.3%
97 | CC(C)Nc1nc2c(-c3cccc(Br)c3)nnn2c2ccccc12 | inactive: 6.72%

From PubChem BioAssay AID1508642 (National Center for Advancing Translational Sciences (NCATS), 2021)
